Reference: PubChem BioAssay AID485297 (National Center for Advancing Translational Sciences (NCATS), 2010)
Among all 320,000 compounds or so, about 9,100 (2.8%) were called active. This list was built around the results that the source calls inconclusive (neither active nor inactive); the mix of calls is not that of the screen. Calls follow the shape of the dose curve; as a rule, active = well fitted activation curve with a large enough effect; inconclusive = small, poorly fitted or top-dose-only effect; inactive = no such curve, though single readings can be large or run the other way. No potency is given beside an inconclusive call; the fits are too rough.

assay: qHTS Assay for Rab9 Promoter Activators; settings: Huh7 Rab9 promoter-luciferase reporter, luminescence, 24 h; series mostly up to 9.22 µM; activation, negative = inhibition: at the top concentration; also: nearly all actives have a fitted effect of over 60% in size; as to activation, negative = inhibition: % of control where 0% means no effect
In short: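 Cell-based reporter: Huh7 stable for Rab9 promoter-driven luciferase, plated in reduced-serum medium with 10% FBS at 1500 cells/well, compound-treated 24 h at 37 °C, luminescence read after 10 min reagent.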
Potency is read from the fitted curve at half-maximal effect; tags tell the direction and shape of the fitted curve.

Compound	Potency	activation, negative = inhibition
CCC(C)Nc1nc(-c2ccc3c(c2)NC(=O)CO3)cs1 (stereo not given)	inconclusive [activator, partial curve]	–
OC1CCN(Cc2ccc(OCc3ccccc3)cc2)CC1	inconclusive [activator, partial curve]	–
CCc1ccc(OCC(=O)NCc2ccco2)c(Br)c1	inconclusive [activator, partial curve]	–
Cc1nnsc1C(=O)NC1CCCCC1	–	inactive: -2.73%
O=C(Nc1ccc(N2CCOCC2)cc1)c1cnsn1	inconclusive [activator, full curve, poor fit]	–
Cc1ccc(NC(=O)C(=O)NCc2ccccn2)cc1	inconclusive [activator, partial curve]	–
O=C(CC1CC2CCC1C2)NC1CCCCCCC1 (stereo not given)	inconclusive [activator, single point]	–
O=C(CSc1ncccc1C(=O)O)c1ccc2ccccc2c1	inconclusive [activator, partial curve]	–
O=C(CCc1nc2ccccc2s1)c1ccccc1	inconclusive [activator, single point]	–
O=C(NC(=S)Nc1ncccn1)c1ccc(Cl)cc1Cl	inconclusive [activator, single point]	–
COc1ccccc1C(=O)Nc1cc(-c2ccc(C)cc2)no1	inconclusive [activator, single point]	–
Cc1ccc(NC(=O)c2cccc(N3C(=O)CCC3=O)c2)nc1	inconclusive [activator, single point]	–
Cn1ccnc1SCC(=O)Nc1cc(S(=O)(=O)N2CCOCC2)ccc1Cl	–	inactive: -3.68%
CCc1ccc(OCC(=O)Nc2ccc(-c3cc4ccccc4oc3=O)c(OC)c2)cc1	–	inactive: 0.952%
CC(C)(C)c1ccc(-c2nnc3sc(-c4ccccn4)nn23)cc1	inconclusive [activator, partial curve]	–
CCN(CC)c1ccc(O)c(C=Nc2ccc(C)c(C)c2)c1	inconclusive [activator, single point]	–
COc1ccccc1-c1ccc(SCC(=O)N2CCOCC2)nn1	–	inactive: 2.51%
c1ccc2oc(C3=NNC(=NC4CC4)SC3)cc2c1	active: 0.316 µM	–
CCOc1ccc(NS(=O)(=O)c2ccc(C)c(C(=O)NCCCn3ccnc3)c2)cc1	–	inactive: 0.469%
CCCCn1c(N)c(N(CCOC)C(=O)COC(=O)COc2ccccc2C#N)c(=O)[nH]c1=O	–	inactive: -1.6%
COCCNC(=O)C(=O)Nc1ccc(Br)cc1	inconclusive [activator, single point]	–
Cc1ccc(NC(=O)Nc2ncccc2C)cc1	active: 2 µM	–
N#C/C(=C(/O)c1cccc(F)c1)c1nc2ccccc2s1	inconclusive [activator, partial curve]	–
COc1ccccc1-c1nn2c(=O)cc(C)nc2s1	inconclusive [activator, single point]	–
O=C(CN1CCN(C2CCCCC2)CC1)Nc1cccc2ccccc12	–	inactive: -3.29%

Compound	Potency	activation, negative = inhibition
CN(Cc1ccccc1)C(=O)c1ccc(NC(=O)Cc2cccc(NC(=O)C3CCCN(C(=O)C4CCCC4)C3)c2)cc1 (stereo not given)	–	inactive: -9.03%
CCOC(=O)C1=C(COc2ccccc2)NC(=O)NC1c1ccc(Br)cc1 (stereo not given)	–	inactive: -3.85%
O=C(Cn1nc(C(=O)O)c2ccccc2c1=O)Nc1ccc2c(c1)C(=O)c1ccccc1C2=O	inconclusive [activator, single point]	–
O=C(CC1SCCNC1=O)Nc1ccc(Cl)cc1 (stereo not given)	inconclusive [activator, single point]	–
Cc1ccc(-c2cc(C(=O)N3CCCC3)no2)cc1	inconclusive [activator, partial curve, poor fit]	–
O=C(NCc1ccccc1)c1ccc2nc(N3CCOCC3)sc2c1	–	inactive: 20.4%
CC(=O)c1cccc(Nc2nc(-c3ccccc3)cs2)c1	active: 1.26 µM	–
CC(C)(C)NC(=O)CSc1nc(-c2ccc(F)cc2)cs1	active: 2 µM	–
Cc1ccc2c(c1)sc(=NC(=O)c1cccs1)n2C	active: 3.55 µM	–
CC(C)(C)c1nc(NC(=O)Nc2ccccc2)sc1Br	inconclusive [activator, single point]	–
CCOC(=O)C1CCN(C(=O)CCCOc2ccccc2)CC1	inconclusive [activator, single point]	–
COc1ccc(CNc2nc(-c3ccccc3)nn2C(=O)c2ccc([N+](=O)[O-])cc2)cc1	inconclusive [activator, partial curve]	–
Clc1ccc(CSc2ccc(-c3ccco3)nn2)cc1	inconclusive [activator, single point]	–
COCC(C)n1c(SCC(=O)NC(=O)NC2CCCC2)nc2ccccc2c1=O (stereo not given)	–	inactive: -4.83%
CC(=O)N(/N=C1\Sc2ccccc2C1=O)c1ccccc1C	active: 3.16 µM	–
Cc1cccc(Nc2nnc(SC3CCOC3=O)s2)c1C (stereo not given)	–	inactive: 2.67%
Cn1cc(CNC(=O)c2ccc3nc(Cc4ccccc4F)oc3c2)cn1	inconclusive [activator, partial curve]	–
CC1CCCN(C(=O)CNC(=O)c2ccco2)C1 (stereo not given)	inconclusive [activator, single point]	–
O=C(Nc1ccn(Cc2ccccc2)n1)c1ccc2c(c1)OCO2	active: 2.82 µM	–
Cc1ccc(/C=N/Nc2cccc3cccnc23)c(O)c1	inconclusive [activator, single point]	–
CC(C)(C)c1ccc(/C=N/NC(=O)c2ccccn2)cc1	active: 0.891 µM	–
Cc1ccc2c(COC(=O)c3ccccc3F)cc(=O)oc2c1	inconclusive [activator, single point]	–
O=C1N/C(=C/c2ccc(N3CCOCC3)o2)C(=O)N1c1cccc(Cl)c1	inconclusive [activator, single point]	–
CCOc1cc(NC(=S)Nc2ccccc2)c(OCC)cc1NC(=O)c1ccc(OC)cc1	–	inactive: -2.34%
NC(=O)c1ccsc1NC(=O)CSc1ccccc1F	inconclusive [activator, partial curve]	–
